# The other results are listed elsewhere or left out. At the low end of the ranking the order means little.
# Molecular target: T1, GST-Rok (full length) (UniProt O34857)
# T1 sequence: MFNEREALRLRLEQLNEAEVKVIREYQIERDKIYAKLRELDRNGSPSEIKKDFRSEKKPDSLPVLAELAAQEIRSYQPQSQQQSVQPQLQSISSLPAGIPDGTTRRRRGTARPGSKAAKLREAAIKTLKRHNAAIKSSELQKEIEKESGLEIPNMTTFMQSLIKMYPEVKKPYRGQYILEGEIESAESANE
# Assay: protein binding microarray;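 note: rank score from −0.5 (least bound) to 0.5 (best bound)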
# Conditions: Rok is a gene silencer of Bacillus subtilis; high values mean tight binding; most listed sequences are background and not binding sites; double strand, one strand shown
row,Sequence,binding signal [E-score]
1,GAGACCTC,-0.168
2,CGTTTGGC,-0.0418
3,ATACCCTA,0.171
4,GTTTCTAA,-0.0108
5,CCCGAACA,-0.132
6,GAAAGACC,-0.174
7,ACAGTCGG,0.0449
8,CTCTGAGC,-0.24
9,ATGTCTTC,-0.121
10,CCAATCTC,0.147
11,ATATCAAT,0.327
12,AAGGAATA,-0.00782
13,GAGACGCC,-0.274
14,ACTATGAC,0.186
15,CACCAGCG,-0.221
16,AAGCTAAA,0.14
17,CATAGATA,0.3
18,CAGGTCGG,-0.281
19,AGACCCAG,-0.256
20,AAATCCTG,0.00397
21,CAGAAGAG,-0.296
22,CCGTCCAA,-0.206

row,Sequence,binding signal [E-score]
1,CCCTGAGC,-0.339
2,CATAGGCA,0.0952
3,CACATTGC,-0.119
4,AAGAAAAT,0.0829
5,AACGCTGT,-0.174
6,CAGCTTAG,-0.0865
7,AATTGACC,0.049
8,CGCCGAGC,-0.259
9,CAAAGATA,0.164
10,GTTGTCAA,0.0198
11,CGGTACAA,0.0777
12,ATTGCCCA,0.0385
13,CCGTAACG,-0.215
14,ATGGTTGG,-0.131
15,CACATGCA,0.162
16,GAGCCCCC,-0.393
17,CATAGGCC,-0.348
18,CAAACAAC,0.00627
19,AACCGGGC,-0.145
20,CTTCTTGA,-0.132
21,CCGTGTCG,-0.229
22,ATGTTGGA,0.082

row,Sequence,binding signal [E-score]
1,GCTAGCCA,0.0444
2,ATGATATA,0.389
3,ATGCTTAA,-0.0105
4,AAGTATGC,0.156
5,AAACCCCC,-0.248
6,GGCTCTAC,-0.0126
7,AGGAGTGG,-0.282
8,TCCCCGCA,-0.367
9,GCACGAAA,-0.0319
10,ACGAAAAC,-0.102
11,TAAATCTA,0.308
12,CTCTCAAC,0.0234
13,ACGTATGG,0.156
14,TCCTCCGA,-0.265
15,GCCATTCC,-0.144
16,GCCAAAGA,-0.214
17,GAAAGAAA,0.0636
18,GAAGCTCA,-0.168
19,GACTGGAA,0.132
20,ACGGTAGT,0.373
21,CTGCTACA,0.259
22,AATTAAAC,0.0743

row,Sequence,binding signal [E-score]
1,TAAATTAA,0.28
2,AGGCGCCA,-0.0988
3,ACCCCAGC,-0.231
4,ACCGTGCC,-0.206
5,AAAGTTTG,0.113
6,TATTGTAA,0.2
7,CGGAATCA,0.0438
8,CACAAAAA,0.0676
9,CATACCTC,0.0284
10,TGCTAGCA,0.0889
11,TAACAAGA,0.167
12,AGCGGACG,-0.0349
13,AGTTACAC,0.314
14,CAGACAAC,-0.0228
15,CCTGGTGA,-0.273
16,AACGGTCT,-0.0396
17,ACCGTGCG,-0.127
18,ACAGTAAC,0.293
19,CGGGTCAC,-0.226
20,CGCCTCAC,-0.0554
21,CCCCTTCG,-0.37
22,AGGGCGTG,-0.412

row,Sequence,binding signal [E-score]
1,GACTCAAC,-0.0551
2,ACGGCCTA,-0.107
3,AATGAGAC,-0.125
4,ATGGGTTC,0.139
5,CAGTACTC,0.0775
6,GATCTGGC,-0.134
7,TAGGTGAA,0.142
8,AGCTCGAG,0.116
9,ACACTCTC,0.000652
10,ACTATGTG,0.0606
11,GAAACTGC,0.0322
12,CTCGCAGA,-0.207
13,CAAGTAGG,0.153
14,CCTTGACA,-0.116
15,GTACATAC,0.28
16,CACCCTTA,-0.198
17,TGTGAACA,0.0178
18,ACGATGGA,0.131
19,AGGAATGG,-0.257
20,TCGAGCAA,0.00787
21,ATACCGAC,0.0836
22,GTATATTA,0.391

# From publication PMC6212790
